The source of these data is the antibiotic and cytotoxicity screens of Wong et al. (2023).

SMILES strings stand for the structures. Some of the results follow.

One assay has as its system HSkMC. Nature of the assay: cytotoxicity call (relative viability < 0.9). The settings on record: 10 µM.
The next assay has as its system HepG2. Nature of the assay: cytotoxicity call (relative viability < 0.9). To be noted: 10 µM.
The subject of another assay is S. aureus RN4220. Briefly: growth inhibition call (relative growth <= 0.2). The settings on record: 50 µM.

As for `COc1ccc(NC(=O)N(C)C[C@H]2OCCCC[C@@H](C)Oc3ccc(NS(=O)(=O)c4ccc(F)cc4)cc3C(=O)N([C@@H](C)CO)C[C@@H]2C)cc1`, the cytotoxicity call with HSkMC and in the assay with HepG2 was “inactive” in each case. Moreover, the growth inhibition call in the assay with S. aureus RN4220 is “inactive”.
`COc1ccc(-c2nc(N3CCOCC3)c3sc(CN(C)c4ncc(C(=O)NO)cn4)cc3n2)cn1`: the cytotoxicity call with HSkMC and in the assay on HepG2 was “active” each time. The growth inhibition call in the assay with S. aureus RN4220 was “inactive”.
Turning to `C[C@H]1CN([C@@H](C)CO)C(=O)c2cc(NC(=O)Nc3ccc4c(c3)OCO4)ccc2O[C@H]1CN(C)C(=O)Nc1ccc(C(F)(F)F)cc1`, the cytotoxicity call with HSkMC and with HepG2 was “inactive” in each case. Besides, the growth inhibition call with S. aureus RN4220 was “inactive”.
Consider `CCCNC(C)(C)COC(=O)c1ccccc1.Cl`, for which the cytotoxicity call in the assay with HSkMC and with HepG2 was “inactive” throughout. Moreover, in the assay on S. aureus RN4220, the growth inhibition call is “inactive”.
Turning to `COC(=O)[C@H](Cc1ccccc1)N1CC2=CCCC=C[C@H]2[C@@H]1[C@@H](O)CCn1cc(-c2ccc(C(=O)NO)cc2)nn1`, the cytotoxicity call with HSkMC and in the assay on HepG2 was “inactive” each time. Besides, in the assay on S. aureus RN4220, the growth inhibition call was “inactive”.
Regarding `COc1ccc(CN(C)C[C@H]2Oc3ccc(NS(=O)(=O)c4cn(C)cn4)cc3C(=O)N([C@@H](C)CO)C[C@H]2C)cc1`, the cytotoxicity call in the assay with HSkMC and in the assay on HepG2 was “inactive” each time. In addition, the growth inhibition call in the assay on S. aureus RN4220 is “inactive”.
As to `NS(=O)(=O)c1cc2c(cc1Cl)N=CNS2(=O)=O`, the cytotoxicity call in the assay with HSkMC and in the assay with HepG2 was “inactive” in each case. In addition, the growth inhibition call in the assay on S. aureus RN4220 is “inactive”.
Consider `COc1ccc(S(=O)(=O)Nc2ccc3c(c2)C(=O)N([C@H](C)CO)C[C@@H](C)[C@H](CN(C)C(=O)CCC(F)(F)F)OCCCC[C@@H](C)O3)cc1`, for which the cytotoxicity call with HSkMC and in the assay with HepG2 was “inactive” each time. Moreover, the growth inhibition call in the assay with S. aureus RN4220 was “inactive”.
With `CC(C)NC(=O)N(C)C[C@H]1Oc2ccc(NC(=O)Cn3cnnn3)cc2C(=O)N([C@@H](C)CO)C[C@H]1C`, the cytotoxicity call in the assay with HSkMC and with HepG2 was “inactive” each time. Moreover, the growth inhibition call with S. aureus RN4220 is “inactive”.
Regarding `C[C@H]1CCCCO[C@H](CN(C)Cc2ccc(C(F)(F)F)cc2)[C@@H](C)CN([C@@H](C)CO)C(=O)c2cc(NS(=O)(=O)c3ccc(F)cc3)ccc2O1`, the cytotoxicity call in the assay on HSkMC (human skeletal muscle cells) and in the assay on HepG2 was “inactive” throughout. In addition, the growth inhibition call with S. aureus RN4220 is “inactive”.
